# In PubChem BioAssay AID686978 (National Center for Advancing Translational Sciences (NCATS), 2013):
# Values joined by “and” are separate entries in the source; they are usually repeats but may differ in a detail not shown here. Equal entries are not always repeated. Screen size: about 420,000 compounds; about 64,000 (15%) were called active. The shares of active, inactive and inconclusive entries below differ from those in the screen. Calls follow the shape of the dose curve; as a rule, active = well fitted inhibition curve with a large enough effect; inconclusive = small, poorly fitted or top-dose-only effect; inactive = flat fitted curve, though single readings scatter. Potencies beside an inconclusive call are fits to weak or partial responses and may not hold up.
# Experiment: qHTS for Inhibitors of human tyrosyl-DNA phosphodiesterase 1 (TDP1): qHTS in cells in absence of CPT; also: nearly all actives have a fitted effect of over 55% in size
# Conditions: DT40 Tdp1-/- hTDP1 cells, no CPT, ATP luminescence, 48 h; activity change, negative = growth inhibition: at 46.2 µM (top of the series) unless noted
# Method in brief: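 Seeded 400 DT40-hTDP1 cells/well (vehicle DMSO, no 20 nM CPT); pinned compounds; ≥48 hr at 37 °C; CellTiter-Glo luminescence as viability measure.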
# % is scaled to controls: 0 for no effect and ±100 for the full control effect; potency is read from the fitted curve at half-maximal effect; tags tell the direction and shape of the fitted curve.
SMILES,Potency,"activity change, negative = growth inhibition"
Cc1ccccc1Nc1c(-c2ccc(N3CCOCC3)cc2)nc2ncccn12,"inconclusive: 20.6 µM [inhibitor, single point]",
COC(=O)c1scc(-c2ccccc2)c1S(=O)(=O)Nc1cccc(C)c1C,active: 25.9 µM,
CCC(C)(C)NS(=O)(=O)c1cc(CN2C(=O)c3cccnc3C2=O)ccc1OC,inactive,
COC(=O)c1ccc(/C=C/c2ccc3cccc(OC(C)=O)c3n2)cc1,active: 20.6 µM,
CCOC(=O)c1c(N)sc(N)c1C(=O)OCC,active: 5.17 µM,
CCOC(=O)c1c(C)[nH]c(C(=O)/C(C#N)=C/c2ccc(OCC)cc2)c1C,inactive,
O=C(CN1C(=O)C2C3C=CC(C4CC34)C2C1=O)Nc1cnc2ccccc2c1 (stereo unspecified),"inconclusive: 29.1 µM [inhibitor, single point]",
CCCCOc1ccc(C(=O)N(Cc2ccc(C(C)C)cc2)C2CCS(=O)(=O)C2)cc1 (stereo unspecified),"inconclusive: 25.9 µM [inhibitor, single point]",
COCC1CCN(C(=O)c2ccc3oc(CCc4ccccc4)nc3c2)C1 (stereo unspecified),"inconclusive: 29.1 µM [inhibitor, single point]",
O=C(c1ccccc1Cl)n1nc(-c2cccnc2)nc1NCc1ccc(F)cc1,,inconclusive: -34.4% [inhibitor]
COc1ccc(N2C(=O)C3CCCN3C2c2ccc(F)cc2)cc1Cl (stereo unspecified),inactive,
COc1cc(NC(=O)c2cc([N+](=O)[O-])ccc2Br)ccc1NC(=O)c1ccco1,"inconclusive: 29.1 µM [inhibitor, single point]",
CC1=[N+]([O-])C(C)(C)CC(C)(C)c2ccccc21,inactive,
O=S(=O)(Cc1ccccc1)N1CCN(c2nc(-c3cccs3)nc3ccccc23)CC1,active: 12.6 µM,
O=C(NCCCN1CCCC1)c1ccc2c(c1)N(Cc1cccc(Cl)c1)C(=O)c1ccccc1S2(=O)=O,"inconclusive: 23.1 µM [inhibitor, single point]",
Cc1cc(C)c(NC(=O)CCc2c(C)nc3c(c(C)nn3C(C)(C)C)c2C)c(C)c1,"inconclusive: 3.26 µM [inhibitor, full curve]",
Cc1cccc(OCc2nc(-c3cccnc3)no2)c1,inactive,
CCOC(=O)C1(C)/C(=N/Nc2ccccc2)C(=O)C(=O)N1c1ccccc1 (stereo unspecified),inactive,
O=C(O)CCCCCCCCCCCc1ccccc1,inactive,
COc1ccc(N2CCN(C3=NS(=O)(=O)C(c4cccc(Br)c4)=C3C)CC2)cc1,"inconclusive: 18.4 µM [inhibitor, single point]",
Cc1ccc(C(O)(CCN2CCCCC2)c2ccccc2)cc1 (stereo unspecified),"inconclusive: 14.6 µM [inhibitor, partial curve]",
COc1ccc(CN2CCN(c3nc4ccccc4s3)CC2)cc1,"inconclusive: 13 µM [inhibitor, partial curve]",
CNC(=O)COC(=O)/C=C/c1nc2ccccc2s1,"inconclusive: 0.731 µM [inhibitor, full curve]",

SMILES,Potency,"activity change, negative = growth inhibition"
CCOC(=O)c1c(NC(=O)OC)sc(C(=O)N(CC)CC)c1C,"inconclusive: 20.6 µM [inhibitor, single point]",
Cc1cccc(NS(=O)(=O)c2cccs2)n1,inactive,
CC12CCC(C[N+](C)(CCC[N+](C)(C)C)C1)C2(C)C (stereo unspecified),"inconclusive: 9.44 µM [inhibitor, partial curve, poor fit]",
COc1cccc(-c2ccc(NC(=O)C3CCCN(Cc4cnc(N(C)C)s4)C3)cc2)c1 (stereo unspecified),active: 23.1 µM,
CCN(CC)c1cc2nc(C)n(Cc3ccccc3)c(=O)c2cc1NC(=O)C1CC1,"inconclusive: 20.6 µM [inhibitor, single point]",
CCOc1ccccc1N1CCN(C(=O)c2ccc(-c3ccc(OC(C)=O)cc3)cc2)CC1,,inconclusive: -31% [inhibitor]
O=C(Cc1cccs1)NC(Cc1c[nH]c2ccccc12)C(=O)O (stereo unspecified),inactive,
Cc1cccc(C)c1NC(=O)C1CCCN1S(=O)(=O)c1ccc(-c2ccc(=O)[nH]n2)s1 (stereo unspecified),"inconclusive: 29.1 µM [inhibitor, single point]",
COc1ccccc1NC(=O)Cc1coc2cc(C)ccc12,"inconclusive: 23.1 µM [inhibitor, single point]",
COCCCNC(=O)[C@H](Cc1ccccc1)NC(=O)CC[C@H]1O[C@@H](n2ccc(=O)[nH]c2=O)[C@H](O)[C@@H]1O,inactive,
CCOc1ccc(NS(=O)(=O)c2ccc(C(=O)NCC(c3ccccc3OC)N3CCCC3)cc2)cc1 (stereo unspecified),active: 18.4 µM,
O=C(NCc1ccco1)c1ccc2[nH]c(=O)c(=O)[nH]c2c1,inactive,
CCOc1ccc(NS(=O)(=O)c2csc(C(N)=O)c2)cc1,"inconclusive: 16.4 µM [inhibitor, partial curve]",
COC(=O)c1ccc(/C=C(\C#N)C(=O)NC(C)c2ccccc2)cc1 (stereo unspecified),active: 10.3 µM,
CC1CN(C(=O)CN(C)S(=O)(=O)c2ccc3ccccc3c2)CC(C)O1 (stereo unspecified),inactive,
CCOc1ccc2cc(C(=O)NCc3ccccc3)c(=N)oc2c1,"inconclusive: 29.1 µM [inhibitor, single point]",
O=C(COc1cccc(C(F)(F)F)c1)N1CCN(c2ccccc2O)CC1,"inconclusive: 25.9 µM [inhibitor, single point]",
Cc1ccccc1S(=O)(=O)Cc1ccc(C(=O)NCCc2ccccc2)o1,"inconclusive: 29.1 µM [inhibitor, single point]",
Cc1ccc2c(c1)-c1c(cnn1CC(=O)N1CCN(c3cc(C)ccc3C)CC1)CO2,active: 18.4 µM,
Cc1cccc(CSc2ncnc3ccccc23)c1,"inconclusive: 20.6 µM [inhibitor, single point]",
COc1ccc(S(=O)(=O)N2CCCC2C(=O)NCc2cccs2)cc1 (stereo unspecified),inactive,
O=C(NCCc1ccccc1)[C@@H]1CC=C[C@@H]2CCN(Cc3ccccc3)C(=O)[C@@H]21,"inconclusive: 25.1 µM [inhibitor, single point] and inconclusive: 29.1 µM [inhibitor, single point]",
c1ccc(-c2noc(CN3CCN(C(c4ccccc4)c4ccccc4)CC3)n2)cc1,,inconclusive: -34.1% [inhibitor]
